Measured values taken from publication PMC3840166.
These are yes or no findings as the source states them, for the method shown. In cells and extracts the contact can be indirect. Some binding calls cover weakened binding; strength is not graded here.

Protein sequences, listed by entry. Tags and fused reporters are not part of them. Lines headed by an entry give the natural chain unless they say otherwise; changes in a name come on top. Residues count along the entry.
UniProt P10644: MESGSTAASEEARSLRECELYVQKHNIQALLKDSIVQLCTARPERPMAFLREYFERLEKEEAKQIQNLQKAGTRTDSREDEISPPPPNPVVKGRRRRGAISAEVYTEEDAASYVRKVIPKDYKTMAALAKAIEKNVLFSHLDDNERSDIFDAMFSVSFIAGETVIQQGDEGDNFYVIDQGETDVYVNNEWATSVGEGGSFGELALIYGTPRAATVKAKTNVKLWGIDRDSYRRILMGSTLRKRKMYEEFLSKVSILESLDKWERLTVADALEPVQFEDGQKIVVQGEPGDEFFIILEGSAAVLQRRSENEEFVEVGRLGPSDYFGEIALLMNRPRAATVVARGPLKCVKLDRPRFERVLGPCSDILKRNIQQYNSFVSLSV
UniProt P27694: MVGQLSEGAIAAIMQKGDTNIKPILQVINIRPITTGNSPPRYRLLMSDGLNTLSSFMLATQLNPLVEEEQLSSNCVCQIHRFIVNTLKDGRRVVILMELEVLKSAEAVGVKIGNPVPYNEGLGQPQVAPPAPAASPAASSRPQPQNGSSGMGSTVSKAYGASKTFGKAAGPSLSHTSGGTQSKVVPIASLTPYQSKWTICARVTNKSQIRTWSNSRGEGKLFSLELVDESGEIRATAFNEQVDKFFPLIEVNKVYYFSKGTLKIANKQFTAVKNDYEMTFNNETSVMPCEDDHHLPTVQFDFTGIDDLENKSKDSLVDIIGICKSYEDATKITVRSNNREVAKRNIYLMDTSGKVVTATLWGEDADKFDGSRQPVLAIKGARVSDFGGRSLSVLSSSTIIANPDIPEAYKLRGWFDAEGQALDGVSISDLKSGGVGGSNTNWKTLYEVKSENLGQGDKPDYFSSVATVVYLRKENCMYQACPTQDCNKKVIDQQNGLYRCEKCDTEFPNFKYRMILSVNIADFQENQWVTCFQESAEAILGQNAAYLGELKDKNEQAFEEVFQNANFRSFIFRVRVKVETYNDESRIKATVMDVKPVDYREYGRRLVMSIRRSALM
UniProt P13051: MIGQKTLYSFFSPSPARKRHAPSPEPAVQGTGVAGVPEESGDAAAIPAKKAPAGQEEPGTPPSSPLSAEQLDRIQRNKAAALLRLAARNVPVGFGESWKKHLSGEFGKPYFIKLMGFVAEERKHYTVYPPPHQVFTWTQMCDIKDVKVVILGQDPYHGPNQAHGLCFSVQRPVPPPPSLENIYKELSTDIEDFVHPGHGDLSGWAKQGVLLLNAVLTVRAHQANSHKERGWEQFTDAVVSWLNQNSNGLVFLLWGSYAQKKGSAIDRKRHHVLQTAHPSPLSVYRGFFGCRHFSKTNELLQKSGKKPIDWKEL
Flag–UngΔ(152–313)–EYFP1–154: residues 1-151 of P13051
Flag–Ung Δ(1-84)–EYFP1–154: residues 85-313 of P13051
UniProt P31946: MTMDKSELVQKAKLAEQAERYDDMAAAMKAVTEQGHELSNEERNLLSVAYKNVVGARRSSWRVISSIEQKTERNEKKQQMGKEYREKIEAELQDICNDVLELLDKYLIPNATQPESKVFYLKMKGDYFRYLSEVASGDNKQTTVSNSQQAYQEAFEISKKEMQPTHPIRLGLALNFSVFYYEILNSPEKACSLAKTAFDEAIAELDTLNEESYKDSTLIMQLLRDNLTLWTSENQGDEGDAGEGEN
UniProt P61981: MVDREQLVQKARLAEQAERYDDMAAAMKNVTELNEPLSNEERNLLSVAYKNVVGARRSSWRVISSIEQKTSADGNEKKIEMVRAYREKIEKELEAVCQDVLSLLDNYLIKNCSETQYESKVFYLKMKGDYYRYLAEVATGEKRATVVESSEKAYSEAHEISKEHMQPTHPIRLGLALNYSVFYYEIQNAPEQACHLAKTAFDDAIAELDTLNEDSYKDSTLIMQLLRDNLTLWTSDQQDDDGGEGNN
UniProt P62258: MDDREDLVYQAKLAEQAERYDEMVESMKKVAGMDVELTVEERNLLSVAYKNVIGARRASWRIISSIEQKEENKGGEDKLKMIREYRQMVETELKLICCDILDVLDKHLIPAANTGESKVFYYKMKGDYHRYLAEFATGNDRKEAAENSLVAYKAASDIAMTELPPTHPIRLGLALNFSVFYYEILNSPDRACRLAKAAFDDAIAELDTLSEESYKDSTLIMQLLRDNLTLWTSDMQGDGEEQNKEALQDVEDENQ
UniProt P63104: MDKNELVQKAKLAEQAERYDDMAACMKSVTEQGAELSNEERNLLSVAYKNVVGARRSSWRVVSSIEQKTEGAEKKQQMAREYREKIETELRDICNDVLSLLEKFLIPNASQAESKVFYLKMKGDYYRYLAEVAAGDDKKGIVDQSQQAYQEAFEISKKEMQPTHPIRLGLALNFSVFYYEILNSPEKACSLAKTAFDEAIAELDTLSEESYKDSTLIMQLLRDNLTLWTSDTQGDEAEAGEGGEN
UniProt Q04917: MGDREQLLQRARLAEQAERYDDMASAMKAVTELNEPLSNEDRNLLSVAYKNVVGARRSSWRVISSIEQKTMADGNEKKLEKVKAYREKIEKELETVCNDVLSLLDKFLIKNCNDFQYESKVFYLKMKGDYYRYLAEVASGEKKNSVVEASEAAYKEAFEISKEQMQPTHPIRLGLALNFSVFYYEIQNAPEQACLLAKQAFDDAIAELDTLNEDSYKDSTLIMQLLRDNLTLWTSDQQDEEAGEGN
UniProt P31947: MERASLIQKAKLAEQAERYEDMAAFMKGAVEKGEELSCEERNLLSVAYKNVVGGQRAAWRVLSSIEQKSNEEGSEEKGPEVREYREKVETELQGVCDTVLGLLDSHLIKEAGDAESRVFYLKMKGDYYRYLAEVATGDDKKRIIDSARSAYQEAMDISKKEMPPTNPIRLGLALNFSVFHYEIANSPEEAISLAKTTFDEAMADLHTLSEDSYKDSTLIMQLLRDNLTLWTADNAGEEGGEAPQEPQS
UniProt P27348: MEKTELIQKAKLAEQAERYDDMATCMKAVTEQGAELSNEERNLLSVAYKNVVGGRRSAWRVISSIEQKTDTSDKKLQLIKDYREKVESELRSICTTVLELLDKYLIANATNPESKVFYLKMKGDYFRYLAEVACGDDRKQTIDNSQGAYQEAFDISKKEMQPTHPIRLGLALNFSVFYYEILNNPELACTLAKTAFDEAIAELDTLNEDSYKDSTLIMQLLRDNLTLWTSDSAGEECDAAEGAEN

How the values were obtained:
Flag–PKA-RIα–EYFP1–154 [1] = molecular target: Flag–PKA-RIα–EYFP1–154 (UniProt P10644); assay: split reporter
Flag–RPA1–EYFP1–154 [2] = molecular target: Flag–RPA1–EYFP1–154 (UniProt P27694); assay: split reporter
[3] = molecular target: Flag–Ung Δ(1-84)–EYFP1–154 (UniProt P13051); assay: split reporter
[4] = molecular target: Flag–UngΔ(152–313)–EYFP1–154 (UniProt P13051); assay: split reporter
Flag–Ung–EYFP1–154 = Flag–Ung–EYFP1–154 (UniProt P13051); assay: split reporter
Flag–PKA-RIα–EYFP1–154 [5] = molecular target: Flag–PKA-RIα–EYFP1–154 (UniProt P10644); assay: split reporter; EYFP1–154 and EYFP155–238 fusions coexpressed in human HeLa cells (Lipofectamine); EYFP+ cells by flow cytometry (24 hours in the methods; 24 or 48 hours in the legend of Figure 1) or EYFP imaged by confocal microscopy (36 hours)
Flag–RPA1–EYFP1–154 [6] = molecular target: Flag–RPA1–EYFP1–154 (UniProt P27694); assay: as above

Row | binding (Flag–PKA-RIα–EYFP1–154 [1]) | binding (Flag–RPA1–EYFP1–154 [2]) | binding [3] | binding [4] | binding (Flag–Ung–EYFP1–154) | binding (Flag–PKA-RIα–EYFP1–154 [5]) | binding (Flag–RPA1–EYFP1–154 [6]) | Substance
1 | binds | no binding | binds | no binding | binds | – | – | HA–14-3-3β–EYFP155–238 (from UniProt P31946 1-246)
2 | binds | no binding | binds | no binding | binds | – | – | HA–14-3-3γ–EYFP155–238 (from UniProt P61981 1-247)
3 | binds | no binding | binds | no binding | binds | – | – | HA–14-3-3ε–EYFP155–238 (from UniProt P62258 1-255)

Second part, the substance before the results:

Row | Substance | binding (Flag–PKA-RIα–EYFP1–154 [1]) | binding (Flag–RPA1–EYFP1–154 [2]) | binding [3] | binding [4] | binding (Flag–Ung–EYFP1–154) | binding (Flag–PKA-RIα–EYFP1–154 [5]) | binding (Flag–RPA1–EYFP1–154 [6])
4 | HA–14-3-3ζ–EYFP155–238 (from UniProt P63104 1-245) | binds | no binding | binds | no binding | binds | – | –
5 | HA–14-3-3η–EYFP155–238 (from UniProt Q04917 1-246) | binds | no binding | binds | no binding | binds | – | –
6 | HA–14-3-3σ–EYFP155–238 (from UniProt P31947 1-248) | – | – | binds | no binding | binds | binds | no binding
7 | HA–14-3-3τ–EYFP155–238 (from UniProt P27348 1-245) | binds | no binding | binds | no binding | binds | – | –
